# Laboratory results reported in PubChem BioAssay AID504466 (National Center for Advancing Translational Sciences (NCATS), 2011).
# The campaign covered roughly 330,000 compounds. About 4,200 (1.3%) were called active. Inconclusive means that the source gave no clear call. Such entries were picked first, then a sample of the others. Calls come from the whole dose curve; as a rule, active = well fitted activation curve with a large enough effect; inconclusive = small, poorly fitted or top-dose-only effect; inactive = no such curve, though single readings can be large or run the other way. Where the call is inconclusive, the potency comes from a doubtful curve fit.
# Experiment: qHTS screen for small molecules that induce genotoxicity in human embryonic kidney (HEK293T) cells expressing luciferase-tagged ELG1; note: nearly all actives have a fitted effect of over 60% in size
# Details: HEK293T ELG1-luciferase reporter, luminescence, 16 h; series mostly up to 46 µM
# Outline: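 Reporter readout depends on ELG1 protein level, which increases with genetic stress. After 16 hr compound exposure at 37 °C, luciferase activity was quantified using ONE-Glo.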
# Potency is the fitted concentration of half-maximal effect; tags give direction and shape of the fitted curve.
row,SMILES,Potency
1,O=C(Nc1ccc2c(c1)C(=O)OC2)c1ccc(Cl)cc1Cl,"inconclusive: 4.61 µM [activator, single point]"
2,Cc1cccc(C(=O)NC2=NCCS2)c1,"inconclusive: 2.06 µM [activator, full curve]"
3,COc1ccccc1C(=O)O/N=C(\c1ccccc1)c1ccncc1,inactive
4,O=C(CCN1CCC(c2cccs2)=N1)c1cccs1,inactive
5,O=C(COc1ccccc1)Nc1nccs1,"inconclusive: 9.2 µM [activator, partial curve]"
6,CC1C/C(=C/c2cccs2)C(=O)/C(=C/c2cccs2)C1 (stereo not given),inactive
7,O=C(Nc1ccc2oc(-c3ccccc3)nc2c1)c1ccco1,"inconclusive: 4.11 µM [activator, full curve]"
8,O=C(N/N=C/c1ccccc1O)C1CCCC1,"inconclusive: 25.9 µM [activator, single point]"
9,CCOc1ccc2nc(NC(=O)c3c([N+](=O)[O-])cnn3CC)sc2c1,inactive
10,CCOC(=O)C1=C(CSc2nc(-c3ccccc3)ccc2C#N)OC(N)=C(C#N)C1c1cccnc1 (stereo not given),"inconclusive: 25.9 µM [activator, single point]"
11,Oc1ccc(-c2csc(Nc3ncccn3)n2)cc1,active: 4.61 µM
12,CN1CCCC1CCNc1ccc2oc3ccccc3c(=O)c2c1 (stereo not given),"inconclusive: 7.3 µM [activator, partial curve]"
13,Cc1cc(C)c2c(N)c(C(=O)N/N=C/c3ccccc3)sc2n1,"inconclusive: 4.11 µM [activator, full curve]"
14,Nc1ccc2nc(-c3ccccc3)[nH]c2c1,"inconclusive: 10.3 µM [activator, partial curve]"
15,Cc1ccc(C(=O)CC(c2cccs2)S(=O)(=O)c2ccc(C)cc2)cc1 (stereo not given),"inconclusive: 16.4 µM [activator, partial curve, poor fit]"
16,O=C(/C=C/Nc1cccc([N+](=O)[O-])c1)c1cccs1,"inconclusive: 2 µM [activator, partial curve, poor fit]"
17,O=C(OCC(=O)N1CCCC1)c1cccc(Br)c1,"inconclusive: 23.1 µM [activator, partial curve, poor fit]"
18,Cc1ccc(C2=NN=C(NC(=O)CSc3nncn3C)SC2)cc1,"inconclusive: 2.06 µM [activator, partial curve]"
19,CCCCN1CCc2c([nH]c3ccccc23)C1=O,"inconclusive: 14.6 µM [activator, partial curve, poor fit]"
20,C=C(C)CN(CC)C(=O)CCc1nnc(CCCc2ccccc2)o1,"inconclusive: 25.9 µM [activator, single point]"
21,COC(=O)[C@H](CCSC)NC(=O)Cn1cnc(C(=O)Nc2ccc(C)c(C)c2)n1,"inconclusive: 18.3 µM [activator, partial curve]"
22,COc1ccc(C2=Nn3c(nnc3C3CCCCC3)SC2)cc1OC,"inconclusive: 2.91 µM [activator, partial curve, poor fit]"
23,CCOc1ccc(NC(=O)N2CCc3ccccc3C2)cc1,"inconclusive: 13 µM [activator, partial curve]"
24,CC(C)[C@@H]1CC[C@@H](C)C[C@H]1OC(=O)C[n+]1cc(-c2ccc(Cl)cc2)n2c1CCCCC2,inactive

row,SMILES,Potency
1,CC(=O)/C=C/c1ccc2ccccc2n1,"inconclusive: 32.6 µM [activator, partial curve, poor fit]"
2,CSc1ccccc1NC(=O)c1cc(-c2ccco2)on1,"inconclusive: 16.4 µM [activator, partial curve]"
3,CC1=CC(=O)C=C(C)C1=NOc1ccccc1[N+](=O)[O-],"inconclusive: 25.9 µM [activator, partial curve, poor fit]"
4,CC(=O)c1ccc(NCCC(=O)c2ccccc2)cc1,"inconclusive: 29.1 µM [activator, single point]"
5,CC(=O)c1ccc(NC(=S)NCc2ccc(Cl)cc2Cl)cc1,inactive
6,CC(=O)c1cccc(NC(=O)CSc2nnc(C(C)N(C)C)n2Cc2ccccc2)c1 (stereo not given),inactive
7,Cc1cnc(C(=O)Nc2ccc3c(c2)CCC3)cn1,"inconclusive: 1.84 µM [activator, full curve]"
8,O=C(c1ccc(Cl)cc1)N1CCCCC(Sc2nnc(-c3ccc4c(c3)OCO4)o2)C1=O (stereo not given),"inconclusive: 0.291 µM [activator, partial curve, poor fit]"
9,Nc1nnnn1/N=C/C(Br)=C/c1ccccc1,"inconclusive: 25.9 µM [activator, partial curve, poor fit]"
10,CN(C)CCn1c2c(c(SCC(=O)NCc3ccccc3)nc1=O)CCCC2,inactive
11,CC1CC1C(=O)Nc1ccc(-c2ccccc2)cc1 (stereo not given),"inconclusive: 14.6 µM [activator, partial curve]"
12,COc1ccc2c(c1)CC/C2=N\NC(=O)c1ccccc1,"inconclusive: 18.4 µM [activator, single point]"
13,C=CCC[C@H](Cc1ccc(F)cc1)C(=O)OC[C@@H](C)NC(=O)[C@@H](CC=C)CC(=O)N[C@H](CO)Cc1ccccc1,inactive
14,Cc1ccc(NC(=O)/C=C2\NC(=O)CS2)cc1,active: 23.1 µM
15,CCCOC(=O)c1ccc(NC(=O)C2C3C=CC(O3)C2C(=O)O)cc1 (stereo not given),"inconclusive: 20.6 µM [activator, partial curve, poor fit]"
16,CC1CCc2sc(C(=O)NCC3CCCO3)cc2C1 (stereo not given),"inconclusive: 11.6 µM [activator, partial curve]"
17,Cc1ccc(NC(=O)C2CCN(C(=O)c3ccc(Cl)cc3)CC2)nc1,"inconclusive: 29.1 µM [activator, single point]"
18,O=C(NNC(=S)Nc1ccc(Cl)c(Cl)c1)c1ccccn1,"inconclusive: 13 µM [activator, partial curve, poor fit]"
19,COCn1c(COc2ccccc2)nc2ccccc21,"inconclusive: 16.4 µM [activator, partial curve, poor fit]"
20,COc1ccc(NC(=O)NCCN2C(=O)C3C4C=CC(C4)C3C2=O)cc1 (stereo not given),"inconclusive: 18.4 µM [activator, partial curve, poor fit]"
21,COc1ccccc1C(=O)NNC(=O)c1cccc(O)c1,"inconclusive: 20 µM [activator, single point]"
22,Cc1ccc2c(Cl)c(C(=O)N/N=C/c3cccn3C)sc2c1,"inconclusive: 10.3 µM [activator, partial curve, poor fit]"
23,CC(C)(C)NC(=O)NC(=O)CSc1nnc(COc2ccccc2Cl)o1,inactive
24,O=C(NCCC1=CCCCC1)c1ccc(-n2cncn2)cc1,"inconclusive: 16.4 µM [activator, partial curve, poor fit]"

row,SMILES,Potency
1,COCCn1cnc2c1c(=O)n(CC(=O)O)c(=O)n2Cc1ccccc1,inactive
2,CC(=O)Nc1ccc(NC(=O)CCC(=O)OCC(=O)c2ccc(F)cc2)cc1,inactive
3,N/C(=N\OC(=O)CSc1ccccc1)c1ccc([N+](=O)[O-])cc1,"inconclusive: 20.6 µM [activator, single point]"
4,CCc1nnc2sc(-c3ccc(NC(=O)c4ccc5c(c4)OCCO5)cc3)nn12,inactive
5,CCOc1ccc(C2=Nn3c(CC)nnc3SC2)cc1,"inconclusive: 23.1 µM [activator, partial curve, poor fit]"
6,CSc1ncc(-c2ccc(Cl)cc2)[nH]1,"inconclusive: 4.11 µM [activator, full curve]"
7,CC(C)n1cnc2cc(NCc3ccccn3)ccc21,"inconclusive: 18.4 µM [activator, partial curve]"
8,COc1cc(-c2n[nH]c(=S)n2-c2cccc(C(F)(F)F)c2)cc(OC)c1OC,"inconclusive: 20.6 µM [activator, partial curve, poor fit]"
9,O=C(Nc1ccc([N+](=O)[O-])cc1)c1cn(-c2ccccc2)nc1-c1cc2ccccc2o1,"inconclusive: 16.4 µM [activator, single point]"
10,Cc1ccc(-c2csc(NC(=O)CCNC(=O)c3ccc(Cl)cc3)n2)cc1,"inconclusive: 16.4 µM [activator, partial curve, poor fit]"
11,O=C1[C@@H](Oc2ccccc2)[C@@H](c2ccncc2)N1c1ccncc1,"inconclusive: 23.1 µM [activator, partial curve, poor fit]"
12,O=C(c1nc2ccccc2s1)N1CCSCC1,active: 18.4 µM
13,Cc1ccc(N=Nc2ccc(O)cc2)c(Br)c1,active: 11.6 µM
14,CC(=O)Oc1ccc2oc(/C=C/N(C)C)c([N+](=O)[O-])c2c1,"inconclusive: 23.1 µM [activator, single point]"
15,C=CCc1cc(/C=C2/NC(=S)NC2=O)cc(OC)c1O,"inconclusive: 20.6 µM [activator, partial curve, poor fit]"
16,CC(=O)c1ccc(NC(=O)c2c(C)nn(-c3ccccc3)c2Cl)cc1,inactive
17,CC(=O)CCC1CC(c2ccc(Cl)cc2)=NO1 (stereo not given),"inconclusive: 6.51 µM [activator, partial curve]"
18,COc1ccc(-c2cc(=Nc3ccc(C(=O)O)cc3)c3cc(C)ccc3o2)cc1,"inconclusive: 4.61 µM [activator, single point]"
19,Cc1ccc(-c2cc(C(=O)NC3CCCC3)no2)cc1,"inconclusive: 4.47 µM [activator, partial curve, poor fit]"
20,S=C(NCC1CCCO1)NC1CC1 (stereo not given),inactive
21,Cc1ccc(/C=C/C(=O)Nc2ccc(Oc3ccccc3)cc2)o1,inactive
22,COc1cc(C(=O)Nc2ccc3c(c2)N(C(=O)CCN(C)C)c2ccccc2CC3)cc(OC)c1OC,"inconclusive: 18.3 µM [activator, single point]"
